# Test results reported in PubChem BioAssay AID1347120 (National Center for Advancing Translational Sciences (NCATS), 2019).
# Several values for one entry are separate records, joined by “and”; a condition that tells them apart may be missing. Identical values can stand only once. In all, about 390,000 compounds went through this assay and about 930 (0.24%) were called active. The inconclusive results got no clear call from the source; some entries with a clear call stand among them for comparison. Calls follow the shape of the dose curve; as a rule, active = well fitted activation curve with a large enough effect; inconclusive = small, poorly fitted or top-dose-only effect; inactive = no such curve, though single readings can be large or run the other way. A potency beside an inconclusive call is a rough fit, not a confirmed value.
# Assay: qHTS for Suppressors of FUS Proteinopathy: Primary screen using FUS-linked yeast assay; also: nearly all actives have a fitted effect of over 55% in size;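 as to growth rescue (activation): plate controls were DMSO vehicle for no effect and reference control for full effect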
# Conditions: S. cerevisiae FUS-expressing, OD600, 24 h; Potency: growth rescue; growth rescue (activation): at 76.6 µM (top of the series)
# Procedure, shortened: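 Toxicity suppression screen in FUS-yeast. Cells induced with 2% galactose, starting OD 0.005, treated 24hr at 30C with compounds at multiple final concentrations; growth by OD600.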
# Potency is read from the fitted curve at half-maximal effect; tags tell the direction and shape of the fitted curve.
Structure (SMILES),Potency,growth rescue (activation)
Cc1ccc(-n2c(SCC(=O)c3ccccc3Br)nnc2-c2ccncc2)cc1,"inconclusive: 22.4 µM [activator, partial curve, poor fit]",–
CCc1nc2ccc(C(=O)Nc3cccc(NS(C)(=O)=O)c3)cn2c1N(C)C(=O)Cc1ccccc1,"inconclusive: 28.2 µM [activator, single point]",–
Nc1nc(-c2ccccc2Br)cs1,–,inconclusive: 65.2% [activator]
COc1ccc(-n2c(Cn3c(=O)sc4ccccc43)nnc2SCC(=O)N2CCCCC2)cc1,"inconclusive: 25.1 µM [activator, partial curve]",–
CC(=O)O[C@H]1[C@@H](O)[C@H](O)[C@H](Oc2c(O)c(C)c3c4c2[C@@H](C)CC[C@@H]4[C@@H](C)C[C@H]3C=C(C)C)O[C@H]1C,"inconclusive: 31.6 µM [activator, single point]",–
COc1ccc(-n2c(C)cc(C(=O)CSc3nnc(-c4ccoc4C)n3C)c2C)cc1,–,inconclusive: 83.3% [activator]
COc1ccc(C2/C=C\CN(C(=O)c3ccccc3)CC(=O)N2Cc2cccc(F)c2)cc1 (stereo not drawn),"inconclusive: 22.4 µM [activator, single point]",–
CCCCC(=O)Nc1ccc(C(=O)Nc2ccc(S(=O)(=O)Nc3nccc(C)n3)cc2)cc1,"inconclusive: 3.55 µM [activator, full curve]",–
COc1ccc(NC(=O)c2noc(C(C)C)c2[N+](=O)[O-])cc1,–,inactive: 14.8%
COc1ccc(C(C)(O)c2nc(-c3ccc(S(C)(=O)=O)cc3)cs2)cc1 (stereo not drawn),–,inactive: 3.53%
CCNC(=O)c1nn(-c2ccccc2C)nc1CO,–,inactive: 0.641%
O=C(COc1ccc(Cl)cc1Cl)NNC(=S)NC(=O)c1ccco1,–,inactive: 5.48%
COc1ccc(NC(=O)C(c2ccccc2)n2c(=O)c(-c3ccco3)nc3ccccc32)cc1 (stereo not drawn),"inconclusive: 17.8 µM [activator, partial curve, poor fit]",–
COc1ccc(C2CCCN2CC(O)COc2ccccc2C(C)C)cc1 (stereo not drawn),"inconclusive: 12.6 µM [activator, partial curve, poor fit]",–
O=C1OCC(CO)(CO)N=C1NNc1cc(Cl)ccc1Cl,–,inactive: 13.3%
CC1CCN(C(=O)c2ccc(-c3ccccc3Cl)o2)CC1,–,inactive: 22.2%
CCOC(=O)C1CCN(C(=O)c2ccc3c(=O)n4nc(Nc5cc(C)ccc5C)sc4nc3c2)CC1,"inconclusive: 7.94 µM [activator, full curve] and inconclusive: 25.1 µM [activator, partial curve, poor fit]",–
CC1=C(C(=O)OCC(C)C)C(c2cc3c(cc2Br)OCO3)NC(=O)N1C (stereo not drawn),"inconclusive: 25.1 µM [activator, partial curve]",–
CCN1CCN(Cc2ccc(NC(=O)c3ccc(C)c(NC(=O)C4=NN(c5ccccc5)C(=O)C4)c3)cc2C(F)(F)F)CC1,"inconclusive: 31.6 µM [activator, single point] and inconclusive: 35.5 µM [activator, single point]",–
COC(=O)C1(C)CCCC2(C)C3CCC(C(C)C)C(CO)C3C(CO)CC12 (stereo not drawn),"inconclusive: 28.2 µM [activator, single point]",–

Structure (SMILES),Potency,growth rescue (activation)
O=C(NCc1ccco1)C1CCN(S(=O)(=O)c2ccccc2C(F)(F)F)CC1,"inconclusive: 28.2 µM [activator, single point]",–
O=C(NC(c1ccc(F)cc1)c1ccc2ccccc2n1)C1CCN(Cc2ccc(Oc3ccccc3)cc2)CC1 (stereo not drawn),"inconclusive: 39.8 µM [activator, single point]",–
CC(C)C[C@H]1CNC(=S)N1CC1CCCN1C[C@H](Cc1ccccc1)N1C[C@H](Cc2ccc(O)cc2)N(CC2CCCCC2)C1=S (stereo partly drawn),"inconclusive: 28.2 µM [activator, single point]",–
O=C1CC(=C(c2ccccc2)c2ccccc2)C(=O)N1CCCN1CCN(c2cccc(Cl)c2)CC1,"inconclusive: 12.6 µM [activator, partial curve]",–
C=CCSc1nc2ccccc2n1C(=O)/C=C/c1ccc(OC)c(OC)c1,–,inactive: 16.8%
O=C(c1ccccc1)N1c2ncnn2C2(CCCCC2)[C@@H]2CCCC[C@@H]21,–,inactive: 0.811%
CCOC(=O)[C@@]12CCCC=C1N(CCc1ccc(Cl)cc1)C(=O)[C@H]2CC(=O)NCc1cccs1,–,inactive: 38.3%
Cc1ccccc1C(=O)Nc1cc(-c2ccc(Cl)cc2)nn1-c1ccccc1,–,inactive: 3.08%
Cc1ccc2c(c1)C(c1ccc(F)cc1)N(C(=O)c1ccc(OC(C)C)cc1)CC(=O)N2 (stereo not drawn),"inconclusive: 44.7 µM [activator, single point]",–
C[C@H](CO)N1C[C@H](C)[C@@H](CN(C)C(=O)c2cnccn2)Oc2cc(C#CCC3CCCC3)ccc2S1(=O)=O,"inconclusive: 25.1 µM [activator, single point]",–
CN(C(=O)c1ccc(NC(=O)Cc2ccc(NC(=O)C3CCN(C(=O)C4CCCC4)CC3)cc2)cc1)C1CCCC1,"inconclusive: 31.6 µM [activator, single point]",–
CSc1cccc(NC(=O)C2CCN(C(=O)c3cnn(-c4ccccc4)c3-n3cccc3)CC2)c1,"inconclusive: 17.8 µM [activator, partial curve, poor fit]",–
Cc1ccc2oc3c(c(=O)c2c1)C1(C(=O)N(C)c2ccccc21)N(CCCO)C3=O (stereo not drawn),"inconclusive: 2.82 µM [activator, full curve]",–
O=C(Nc1ccc(Cl)cn1)C1CCCN(c2ncnc3c2nc2n3CCCCC2)C1 (stereo not drawn),–,inactive: 21%
CCN(C(=O)CN1C(=O)S/C(=C\C=C\c2ccccc2)C1=O)C1CCS(=O)(=O)C1 (stereo not drawn),"inconclusive: 11.2 µM [activator, single point]",–
O=C(O)C(C(=O)/C=C/c1ccco1)=C1SCCS1,"inconclusive: 8.91 µM [activator, partial curve]",–
Cc1ccc(Cl)cc1N1CCN(CCNC(=O)Nc2ccccc2Cl)CC1,–,inactive: -17.4%
COC(=O)[C@]12CCCCC=C1N(CCC1=CCCCC1)C(=O)[C@H](CC(=O)NCc1ccc(C)o1)C2,"inconclusive: 28.2 µM [activator, single point]",–
Cc1ccc(Cn2nnc3c(=O)[nH]c(C4CCN(S(=O)(=O)c5cc(C)ccc5C)CC4)nc32)cc1,"inconclusive: 20 µM [activator, single point]",–
CN(C(=O)COC(=O)c1cc(NS(=O)(=O)c2cc([N+](=O)[O-])ccc2Cl)ccc1O)C1CCCCC1,"inconclusive: 14.1 µM [activator, partial curve]",–

Structure (SMILES),Potency,growth rescue (activation)
C[C@]12c3[nH]c4cc(-c5ccco5)ccc4c3CCN1C(=O)[C@@H](CC(=O)NCC13CC4CC(CC(C4)C1)C3)C[C@@H]2C(=O)N1CCCCC1,"inconclusive: 17.8 µM [activator, partial curve, poor fit]",–
Cc1cccc(C)c1NC(=S)N/N=C/c1ccc(OCCC(C)C)cc1,"inconclusive: 31.6 µM [activator, single point]",–
Cc1cccc(C)c1NC(=O)C(C1CC1)n1c(=O)c(-c2cc3ccccc3[nH]2)nc2ccccc21 (stereo not drawn),active: 5.62 µM,–
COc1cc(/C=C2\C(=N)N3N=C(S(C)(=O)=O)SC3=NC2=O)cc(OC)c1OCCOc1ccccc1C,"inconclusive: 31.6 µM [activator, partial curve, poor fit]",–
COc1ccc(NC(=O)O[C@@H](C)[C@@H]2CN3CCc4c([nH]c5ccc(-c6ccc(OC)cc6)cc45)[C@@H]3C[C@@H]2N(C)C(=O)Nc2ccc(OC)cc2)cc1,"inconclusive: 28.2 µM [activator, partial curve]",–
COc1ccc(-c2nc3c(C)cc(Br)cn3c2Cc2ccc(C)cc2)cc1OC,"inconclusive: 25.1 µM [activator, partial curve, poor fit]",–
CCCNS(=O)(=O)/C=C/c1ccccc1,–,inactive: 2.04%
NC(=O)[C@H]1CC2(CC(c3cccc(NC(=O)CC(c4ccccc4)c4ccccc4)c3)=NO2)CN1C(=O)c1ccccc1C(=O)c1ccccc1 (stereo partly drawn),"inconclusive: 14.1 µM [activator, partial curve]",–
O=c1c2ccccc2nc(COc2ccccc2)n1/N=C/c1cn[nH]c1-c1ccccc1,"inconclusive: 35.5 µM [activator, single point]",–
C[C@H](CO)N1C[C@H](C)[C@H](CN(C)C(=O)N[C@H](C)c2ccccc2)OCc2ccccc2-c2c(n(C)c3ccccc23)C1=O,"inconclusive: 17.8 µM [activator, partial curve]",–
Cc1ccc(C)c(CSc2nc3ccncc3n2CC(=O)Nc2ccc(N(C)C)cc2)c1,–,inactive: 23.4%
Cc1ccc(NC(=O)CSc2nc(-c3ccco3)nc3cc(=O)[nH]n23)cc1C,"inconclusive: 31.6 µM [activator, partial curve, poor fit]",–
CCCNC(=O)c1ccc(N2CCC3(CC2)CC(c2cccc(Br)c2)=NO3)c(NC(=O)c2ccco2)c1,"inconclusive: 28.2 µM [activator, partial curve, poor fit]",–
CN1CCN(C(=O)c2ccc(-c3ccc(F)c(F)c3)c3ccoc23)CC1,–,inactive: -26.3%
O=C(/C=C/c1ccccc1)N/C(=C/c1ccccc1)C(=O)Nc1cccc(C(=O)O)c1,"inconclusive: 35.5 µM [activator, single point]",–
CCOC(=O)Cc1cc(=O)n2[nH]c(C)c(-c3ccccc3)c2n1,"inconclusive: 39.8 µM [activator, partial curve, poor fit]",–
Cc1ccc(S(=O)(=O)c2c(Nc3cc(F)ccc3F)sc(C(=O)c3ccc(F)cc3)c2N)cc1,–,inactive: -10.3%
Cc1ccc(NC(=O)Cc2csc(C)n2)c(C)c1,–,inactive: 3.49%
